Assay results taken from patent publication US20190367516A1 (Bayer Pharma Aktiengesellschaft, priority 2015, published 2019).

Molecular target: T1, human M2 receptor (Homo sapiens, UniProt P08172)
T1 sequence (P08172 1-466): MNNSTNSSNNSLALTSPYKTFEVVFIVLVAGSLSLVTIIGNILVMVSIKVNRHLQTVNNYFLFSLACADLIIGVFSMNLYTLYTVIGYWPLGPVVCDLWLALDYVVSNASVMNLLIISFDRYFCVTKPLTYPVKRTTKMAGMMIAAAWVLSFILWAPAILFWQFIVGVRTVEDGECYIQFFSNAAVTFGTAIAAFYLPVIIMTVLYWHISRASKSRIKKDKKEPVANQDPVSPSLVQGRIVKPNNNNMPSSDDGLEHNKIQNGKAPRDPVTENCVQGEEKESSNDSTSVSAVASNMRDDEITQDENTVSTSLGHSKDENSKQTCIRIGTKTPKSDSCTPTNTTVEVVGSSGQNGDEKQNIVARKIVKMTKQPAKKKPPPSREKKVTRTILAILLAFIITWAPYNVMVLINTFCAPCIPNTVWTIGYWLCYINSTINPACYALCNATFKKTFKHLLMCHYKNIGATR
Settings: boosting of the acetylcholine effect at an EC20 acetylcholine concentration; for Emax: read-out: Efficiency, M2-GIRK1/4 activation test

Emax [%] | Efficiency (M2-GIRK1/4 activation test) [%] | Structure (SMILES)
97.6 | – | CC(C)(NC(=O)c1cn(-c2ccc(F)cc2F)c2nc(N3CCCS3(=O)=O)ccc2c1=O)c1c(F)cccc1F [compound 185]
99.7 | – | CC[C@@H](NC(=O)c1cn(-c2ccc(F)cc2F)c2nc(N3CCC(O)C3=O)ccc2c1=O)C(F)(F)F (single isomer, unassigned) [Example 225]
98.7 | – | CC(COC(F)(F)F)NC(=O)c1cn(-c2ccc(F)cc2F)c2nc(N3CC[C@H](F)C3)ccc2c1=O (single isomer, unassigned) [Example 228]
88.5 | – | CC[C@@H](NC(=O)c1cn(-c2c(F)cccc2F)c2nc(N3CCC(O)C3=O)ccc2c1=O)C(F)(F)F (single isomer, unassigned) [Example 293]
100 | – | CC[C@@H](NC(=O)c1cn(-c2c(F)cc(F)cc2F)c2nc(N3CCC(O)C3=O)ccc2c1=O)C(F)(F)F (single isomer, unassigned) [Example 281]
88.9 | – | CC(C)Nc1ccc2c(=O)c(C(=O)NC34CCC(CC3)CC4)cn(-c3ccc(F)cc3F)c2n1 [compound 159]
94.6 | – | O=C(N[C@@H](C1CC1)C(F)(F)F)c1cn(-c2c(F)cc(F)cc2F)c2nc(N3CCNC3=O)ccc2c1=O [Example 323, N-[(1 S)-1-Cyclopropyl-2,2,2-trifluoroethyl]-4-oxo-7-(2-oxoimidazolidin-1-yl)-1-(2,4,6-trifluorophenyl)-1,4-dihydro-1,8-naphthyridine-3-carboxamide]
95 | – | O=C(NC(c1c(F)cccc1F)C(F)(F)F)c1cn(-c2ccc(F)cc2F)c2nc(N3CC[C@@H](O)C3=O)ccc2c1=O (stereo partly drawn) [Example 300, 1-(2,4-Difluorophenyl)-N-[1-(2,6-difluorophenyl)-2,2,2-trifluoroethyl]-7-[(3R)-3-hydroxy-2-oxopyrrolidin-1-yl]-4-oxo-1,4-dihydro-1,8-naphthyridine-3-carboxamide]
92.5 | – | O=C(NC(C1CC1)C(F)(F)F)c1cn(-c2ccccc2Cl)c2nc(N3C[C@@H](O)CC3=O)ccc2c1=O (mixture of isomers) [Example 279, 1-(2-Chlorophenyl)-N-[1-cyclopropyl-2,2,2-trifluoroethyl]-7-[(4S)-4-hydroxy-2-oxopyrrolidin-1-yl]-4-oxo-1,4-dihydro-1,8-naphthyridine-3-carboxamide]
95 | – | O=C(N[C@@H](C1CC1)C(F)(F)F)c1cn(-c2c(F)cc(F)cc2F)c2nc(N3CCN(CCO)C3=O)ccc2c1=O [Example 363, N-[(1 S)-1-Cyclopropyl-2,2,2-trifluoroethyl]-7-[3-(2-hydroxyethyl)-2-oxoimidazolidin-1-yl]-4-oxo-1-(2,4,6-trifluorophenyl)-1,4-dihydro-1,8-naphthyridine-3-carboxamide]
– | 96.3 | CC[C@@H](NC(=O)c1cn(-c2ccc(F)cc2F)c2nc(N3CC4CC4(O)C3)ccc2c1=O)C(F)(F)F (single isomer, unassigned) [Example 315]
93 | – | O=C(N[C@@H](C1CC1)C(F)(F)F)c1cn(-c2c(F)cc(F)cc2F)c2nc(N3CCCN(CCO)C3=O)ccc2c1=O [Example 364, N-[(1 S)-1-Cyclopropyl-2,2,2-trifluoroethyl]-7-[3-(2-hydroxyethyl)-2-oxotetrahydropyrimidin-1(2H)-yl]-4-oxo-1-(2,4,6-trifluorophenyl)-1,4-dihydro-1,8-naphthyridine-3-carboxamide]
76.8 | – | C[C@@H](O)CNc1ccc2c(=O)c(C(=O)N[C@@H](C3CC3)C(F)(F)F)cn(-c3c(F)cc(F)cc3F)c2n1 [Example 378, N-[(1S)-1-Cyclopropyl-2,2,2-trifluoroethyl]-7-{[(2R)-2-hydroxypropyl]amino}-4-oxo-1-(2,4,6-trifluorophenyl)-1,4-dihydro-1,8-naphthyridine-3-carboxamide]
100 | – | CC1(O)CCN(c2ccc3c(=O)c(C(=O)NC(C4CC4)C(F)(F)F)cn(-c4c(F)cccc4F)c3n2)C1 (racemic) [Example 326, N-[1-Cyclopropyl-2,2,2-trifluoroethyl]-1-(2,6-difluorophenyl)-7-[3-hydroxy-3-methylpyrrolidin-1-yl]-4-oxo-1,4-dihydro-1,8-naphthyridine-3-carboxamide]

The remaining lines, values behind:

Structure (SMILES) | Emax [%] | Efficiency (M2-GIRK1/4 activation test) [%]
CCC(NC(=O)c1cn(-c2ccc(F)cc2F)c2nc(N(C)CC(F)F)ccc2c1=O)C(F)(F)F (racemic) [Example 114, rac-7-[(2,2-Difluoroethyl)(methyl)amino]-1-(2,4-difluorophenyl)-4-oxo-N-[1,1,1-trifluorobutan-2-yl]-1,4-dihydro-1,8-naphthyridine-3-carboxamide] | 93.3 | –
CC(C)Nc1ccc2c(=O)c(C(=O)NC34CC5CC(CC(C5)C3)C4)cn(-c3ccc(F)cc3F)c2n1 [Example 158, 1-(2,4-Difluorophenyl)-4-oxo-7-(propan-2-ylamino)-N-(tricyclo[3.3.1.1^3,7]dec-1-yl)-1,4-dihydro-1,8-naphthyridine-3-carboxamide] | 100 | –
CCC12CC3CC(C1)CC(NC(=O)c1cn(-c4ccc(F)cc4Cl)c4nc(N(C)C)ccc4c1=O)(C3)C2 [Example 157, 1-(2-Chloro-4-fluorophenyl)-7-(dimethylamino)-N-(3-ethyltricyclo[3.3.1.1^3,7]dec-1-yl)-4-oxo-1,4-dihydro-1,8-naphthyridine-3-carboxamide] | 100 | –
CC(C)CC(NC(=O)c1cn(-c2ccc(F)cc2F)c2nc(NCCF)ccc2c1=O)C(F)(F)F (stereo not shown) [Example 88] | 95 | –
CC[C@H](NC(=O)c1cn(-c2ccccc2F)c2nc(N(C)C)ccc2c1=O)C(F)(F)F [Example 203, 7-(Dimethylamino)-1-(2-fluorophenyl)-4-oxo-N-[(2S)-1,1,1-trifluorobutan-2-yl]-1,4-dihydro-1,8-naphthyridine-3-carboxamide] | 92.5 | –
O=C(NC12CC3CC(CC(C3)C1)C2)c1cn(-c2ccc(F)cc2F)c2nc(NCC(F)F)ccc2c1=O [Example 120, 7-[(2,2-Difluoroethyl)amino]-1-(2,4-difluorophenyl)-4-oxo-N-(tricyclo[3.3.1.1^3,7]dec-1-yl)-1,4-dihydro-1,8-naphthyridine-3-carboxamide] | 86.5 | –
CN(CCF)c1ccc2c(=O)c(C(=O)NC(C(F)(F)F)C(F)(F)F)cn(-c3ccc(F)cc3F)c2n1 [Example 111, 1-(2,4-Difluorophenyl)-7-[(2-fluoroethyl)(methyl)amino]-N-(1,1,1,3,3,3-hexafluoropropan-2-yl)-4-oxo-1,4-dihydro-1,8-naphthyridine-3-carboxamide] | 100 | –
O=C(NC(c1ccccc1Cl)C(F)(F)F)c1cn(-c2ccc(F)cc2F)c2nc(N3C[C@@H](O)CC3=O)ccc2c1=O (single isomer, unassigned) [Example 212] | 99.4 | –
CN(C)c1ccc2c(=O)c(C(=O)NC3CC34CCCCC4)cn(-c3ccc(F)cc3Cl)c2n1 (stereo not shown) [Example 154, 1-(2-Chloro-4-fluorophenyl)-7-(dimethylamino)-4-oxo-N-(spiro[2.5]oct-1-yl)-1,4-dihydro-1,8-naphthyridine-3-carboxamide] | 97.6 | –
CC(C)C(NC(=O)c1cn(-c2ccc(F)cc2F)c2nc(N(C)CCF)ccc2c1=O)C(F)(F)F (stereo not shown) [Example 108, 1-(2,4-Difluorophenyl)-7-[(2-fluoroethyl)(methyl)amino]-4-oxo-N-[1,1,1-trifluoro-3-methylbutan-2-yl]-1,4-dihydro-1,8-naphthyridine-3-carboxamide] | 95 | –
CC[C@@H](NC(=O)c1cn(-c2ccc(F)cc2F)c2nc(NCC(F)F)ccc2c1=O)C(F)(F)F [Example 123, 7-[(2,2-Difluoroethyl)amino]-1-(2,4-difluorophenyl)-4-oxo-N-[(2R)-1,1,1-trifluorobutan-2-yl]-1,4-dihydro-1,8-naphthyridine-3-carboxamide] | 97.7 | –
O=C(NC12CC3CC(CC(C3)C1)C2)c1cn(-c2ccc(F)cc2F)c2nc(N3CCOCC3)ccc2c1=O [Example 136, 1-(2,4-Difluorophenyl)-7-(morpholin-4-yl)-4-oxo-N-(tricyclo[3.3.1.1^3,7]dec-1-yl)-1,4-dihydro-1,8-naphthyridine-3-carboxamide] | 81.5 | –
CC[C@@H](NC(=O)c1cn(-c2ccc(F)cc2F)c2nc(N3CCCCC3=O)ccc2c1=O)C(F)(F)F [Example 178] | 81.3 | –
CN(C)c1ccc2c(=O)c(C(=O)NC(C3CC3)C(F)(F)F)cn(-c3ccc(F)cc3F)c2n1 (racemic) [Example 148, rac-N-(1-Cyclopropyl-2,2,2-trifluoroethyl)-1-(2,4-difluorophenyl)-7-(dimethylamino)-4-oxo-1,4-dihydro-1,8-naphthyridine-3-carboxamide] | 94.9 | –
CC(NC(=O)c1cn(-c2ccc(F)cc2F)c2nc(N(C)CC(F)F)ccc2c1=O)C(F)(F)F (racemic) [Example 113, rac-7-[(2,2-Difluoroethyl)(methyl)amino]-1-(2,4-difluorophenyl)-4-oxo-N-[1,1,1-trifluoropropan-2-yl]-1,4-dihydro-1,8-naphthyridine-3-carboxamide] | 91 | –
O=C(N[C@H](c1ccccc1Cl)C(F)(F)F)c1cn(-c2ccc(F)cc2F)c2nc(N3CCCC(O)C3=O)ccc2c1=O (single isomer, unassigned) [Example 207] | 100 | –
NC(=O)N1CCN(c2ccc3c(=O)c(C(=O)NC45CC6CC(CC(C6)C4)C5)cn(-c4ccc(F)cc4F)c3n2)CC1 [Example 12, 7-(4-Carbamoylpiperazin-1-yl)-1-(2,4-difluorophenyl)-4-oxo-N-(tricyclo[3.3.1.1^3,7]dec-1-yl)-1,4-dihydro-1,8-naphthyridine-3-carboxamide] | 95 | –
